± gives the standard deviation of the averaged measurements. The full ranking holds about 33,000 sequences; the median of “E-score (dimensionless, -0.5 to 0.5)” is about -0.049, and the highest 2% start at about 0.37. The list shows a part of the results.
What follows are sequences tested on T1, PmTbr T-box DNA-binding domain (GST fusion) (assay: PBM E-score of 8-mer (E-score (dimensionless, -0.5 to 0.5)); Tbr is Tbrain of the sea star Patiria miniata (Pm) or the sea urchin Strongylocentrotus purpuratus (Sp); higher = stronger binding preference; most listed sequences are background and not binding sites). Settings: the construct has about 5 more residues each side.
T1 sequence: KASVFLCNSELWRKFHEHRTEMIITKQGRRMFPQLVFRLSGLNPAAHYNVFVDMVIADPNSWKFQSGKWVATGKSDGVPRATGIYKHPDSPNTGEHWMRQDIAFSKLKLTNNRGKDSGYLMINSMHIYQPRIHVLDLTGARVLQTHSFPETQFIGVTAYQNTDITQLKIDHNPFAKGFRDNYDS
Summary of the method: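 Primer extension turned Universal Agilent oligonucleotide arrays double-stranded. They were incubated with 200 nM protein in PBS (pH 7.5); the protein was a GST-fused Tbr T-box DNA-binding domain expressed in BL21 E. coli at 20 °C and purified on glutathione. Every ungapped 8-mer was scored from the scanned, quantified probe intensities, and the Universal PBM Analysis Suite gave each an enrichment E-score averaged over duplicate arrays.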

Row | Sequence | PBM E-score of 8-mer
1 | GACAGCAC | 0.174 ± 0.005
2 | AGCGGGTC | 0.102 ± 0.07
3 | GACAGAAA | -0.114 ± 0.055
4 | AGGAGGGG | -0.0498 ± 0.052
5 | GCACATTA | 0.15 ± 0.015
6 | AACTCGCA | 0.316 ± 0.019
7 | AAATTGAA | -0.207 ± 0.083
8 | CTCACGAA | 0.0478 ± 0.011
9 | AAGAGAAC | -0.215 ± 0.027
10 | CCTAGCCA | -0.105 ± 0.011
11 | ATATGGGA | -0.236 ± 0.056
12 | GATACTCC | -0.0399 ± 0.0054
13 | AGCGAATC | -0.0899 ± 0.015
14 | CAGTATAA | -0.0751 ± 0.07
15 | AAACAGTC | -0.0618 ± 0.029
16 | GCCTAGAC | -0.0277 ± 0.028
17 | CGAGTCGA | 0.00789 ± 0.045
18 | TCGTTTCA | 0.145 ± 0.031
19 | ACATTGCC | 0.126 ± 0.074
20 | CGGGAGAG | -0.0145 ± 0.014
21 | GATACCAA | -0.0695 ± 0.017
22 | CTTGACGA | 0.144 ± 0.0085
23 | CATCGCGC | 0.262 ± 0.0094
24 | CTCGCAAC | 0.324 ± 0.029

Row | Sequence | PBM E-score of 8-mer
25 | GCCTACGC | -0.0536 ± 0.045
26 | AATAATAG | -0.0858 ± 0.098
27 | CAAAAAAG | -0.158 ± 0.05
28 | ACGTGGTA | 0.0282 ± 0.0051
29 | AAAGTATG | -0.163 ± 0.0052
30 | CCCACGCA | -0.182 ± 0.089
31 | ATTAATCC | -0.376 ± 0.0037
32 | TCTGCTAA | 0.148 ± 0.032
33 | AGTTAATG | -0.103 ± 0.0068
34 | ACGTGGTC | 0.0292 ± 0.11
35 | CTTGCTAC | 0.0402 ± 0.038
36 | ACTGGATA | -0.166 ± 0.015
37 | AACCCCGT | -0.0397 ± 0.027
38 | ACACTTAA | 0.362 ± 0.031
39 | ATGTAGGG | -0.366 ± 0.0054
40 | AGGAACCC | -0.314 ± 0.027
41 | ACCGCACT | -0.0142 ± 0.025
42 | CCTATTTA | -0.0627 ± 0.026
43 | CAACAGGA | -0.0583 ± 0.027
44 | AATAACAG | 0.0771 ± 0.072
45 | AGTCGAAG | -0.0996 ± 0.05
46 | ATACCCGC | -0.0707 ± 0.0099
47 | CTACGGGA | -0.278 ± 0.021
48 | ACCTCGCT | 0.0927 ± 0.0016

Row | Sequence | PBM E-score of 8-mer
49 | CTTAAGGA | -0.206 ± 0.005
50 | ATGCTCTC | -0.222 ± 0.022
51 | ACGTGGCG | 0.153 ± 0.0088
52 | GTTCGAAC | -0.0923 ± 0.014
53 | AGGTGCGG | 0.434 ± 0.011
54 | TATATAGA | -0.00256 ± 0.03
55 | GGTGCACA | 0.14 ± 0.044
56 | ATCGAAAG | -0.205 ± 0.047
57 | AAGACAGA | -0.173 ± 0.049
58 | AAACATTT | -0.301 ± 0.027
59 | CGTTAGAC | 0.0732 ± 0.031
60 | ATTCGCAC | 0.4784 ± 0.002
61 | AGGCCGCG | -0.0807 ± 0.04
62 | CAAACTCG | 0.00222 ± 0.032
63 | AGTATGAG | -0.19 ± 0.022
64 | ACCGGAAT | -0.127 ± 0.045
65 | GAACGGAA | -0.109 ± 0.086
66 | CAAATGAG | -0.127 ± 0.1
67 | GATAGAGA | -0.0097 ± 0.0053
68 | CGGATGCC | -0.239 ± 0.09
69 | AATATTGG | -0.00679 ± 0.0075
70 | AGCCCGTC | -0.0561 ± 0.0066
71 | AAAACGAA | -0.098 ± 0.084
72 | AATGGTTG | 0.0395 ± 0.019

Row | Sequence | PBM E-score of 8-mer
73 | ACAGACGT | -0.00267 ± 0.048
74 | GCCACCCC | 0.208 ± 0.0084
75 | CACATATA | 0.26 ± 0.046
76 | CATTGATA | -0.0676 ± 0.064
77 | TGAAGTCA | -0.187 ± 0.036
78 | GCCTATTA | -0.0261 ± 0.018
79 | CACGACAG | 0.143 ± 0.058
80 | CCCTGGAC | -0.263 ± 0.0057
81 | CATGAACA | -0.0713 ± 0.041
82 | AATTCTCC | -0.118 ± 0.02
83 | ACCACTAA | 0.0837 ± 0.0058
84 | AAGGTGGT | 0.3415 ± 0.002
85 | ACGACAAT | 0.0237 ± 0.016
86 | ATTAGAGA | -0.234 ± 0.007
87 | CGAACAAG | -0.177 ± 0.019
88 | CCAGTCAG | -0.104 ± 0.074
89 | GCATGATA | -0.22 ± 0.021
90 | AGTGTGTC | 0.248 ± 0.0093
91 | ACACCCGT | 0.352 ± 0.0052
92 | GTCCGAAA | -0.0702 ± 0.01
93 | GGGCTATA | -0.166 ± 0.015
94 | CGCAAGGA | 0.0552 ± 0.019
